# Results reported in the supplement of paper PMC8728848.
# Some of the results follow.
# Tests used:
# Test in all cases: glycan array binding signal (z-score within array); higher = stronger binding
# Details in all cases: glycan notation: IUPAC condensed, linker removed; mutation: N224Q
# [1] = target: Neu5Ac(a2-3)Gal(b1-3)[Neu5Ac(a2-6)]GlcNAc(b1-3)[Fuc(a1-3)[Gal(b1-4)]GlcNAc(b1-6)]Gal(b1-4)Glc
# Procedure, shortened: (§1)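 The binding signal is a Z-score computed within each array and averaged over linkers. Arrays of the same protein sequence at different concentrations or buffers were also averaged together. Data originate from 3228 arrays in the Consortium for Functional Glycomics database, kept only where the protein sequence was available.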
# [2] = target: Neu5Ac(a2-3)Gal(b1-3)]Neu5Ac(a2-3)Gal(b1-4)]GlcNAc
# Procedure, shortened: as §1
# Neu5Ac(a2-3)Gal(b1-4)Glc = target: Neu5Ac(a2-3)Gal(b1-4)Glc
# Procedure, shortened: as §1
# [3] = target: Neu5Ac(a2-3)Gal(b1-4)GlcNAc
# Procedure, shortened: as §1
# [4] = target: Neu5Ac(a2-3)Gal(b1-4)GlcNAc(b1-2)Man
# Procedure, shortened: as §1
# [5] = target: Neu5Ac(a2-3)Gal(b1-4)GlcNAc(b1-2)Man(a1-3)[GlcNAc(b1-4)][Neu5Ac(a2-3)Gal(b1-4)GlcNAc(b1-2)Man(a1-6)]Man(b1-4)GlcNAc(b1-4)GlcNAc
# Procedure, shortened: as §1
# [6] = target: Neu5Ac(a2-3)Gal(b1-4)GlcNAc(b1-2)Man(a1-3)[Neu5Ac(a2-3)Gal(b1-4)GlcNAc(b1-2)Man(a1-6)]Man(b1-4)GlcNAc(b1-4)GlcNAc
# Procedure, shortened: as §1
# [7] = target: Neu5Ac(a2-3)Gal(b1-4)GlcNAc(b1-2)Man(a1-3)[Neu5Ac(a2-3)Gal(b1-4)GlcNAc(b1-2)Man(a1-6)]Man(b1-4)GlcNAc(b1-4)[Fuc(a1-6)]GlcNAc
# Procedure, shortened: as §1
# [8] = target: Neu5Ac(a2-3)Gal(b1-4)GlcNAc(b1-2)Man(a1-3)[Neu5Ac(a2-6)Gal(b1-4)GlcNAc(b1-2)Man(a1-6)]Man(b1-4)GlcNAc(b1-4)GlcNAc
# Procedure, shortened: as §1
# [9] = target: Neu5Ac(a2-3)Gal(b1-4)GlcNAc(b1-2)[Neu5Ac(a2-3)Gal(b1-4)GlcNAc(b1-4)]Man(a1-3)[GlcNAc(b1-4)][Neu5Ac(a2-3)Gal(b1-4)GlcNAc(b1-2)[Neu5Ac(a2-3)Gal(b1-4)GlcNAc(b1-6)]Man(a1-6)]Man(b1-4)GlcNAc(b1-4)GlcNAc
# Procedure, shortened: as §1
# [10] = target: Neu5Ac(a2-3)Gal(b1-4)GlcNAc(b1-2)[Neu5Ac(a2-3)Gal(b1-4)GlcNAc(b1-4)]Man(a1-3)[GlcNAc(b1-4)][Neu5Ac(a2-3)Gal(b1-4)GlcNAc(b1-4)Man(a1-6)]Man(b1-4)GlcNAc(b1-4)GlcNAc
# Procedure, shortened: as §1
# [11] = target: Neu5Ac(a2-3)Gal(b1-4)GlcNAc(b1-2)[Neu5Ac(a2-3)Gal(b1-4)GlcNAc(b1-6)]Man(a1-6)[Neu5Ac(a2-3)Gal(b1-4)GlcNAc(b1-2)Man(a1-3)][GlcNAc(b1-4)]Man(b1-4)GlcNAc(b1-4)GlcNAc
# Procedure, shortened: as §1
# [12] = target: Neu5Ac(a2-3)Gal(b1-4)GlcNAc(b1-3)Gal
# Procedure, shortened: as §1
# [13] = target: Neu5Ac(a2-3)Gal(b1-4)GlcNAc(b1-3)Gal(b1-3)GlcNAc
# Procedure, shortened: as §1
# [14] = target: Neu5Ac(a2-3)Gal(b1-4)GlcNAc(b1-3)Gal(b1-4)GlcNAc
# Procedure, shortened: as §1
# [15] = target: Neu5Ac(a2-3)Gal(b1-4)GlcNAc(b1-3)Gal(b1-4)GlcNAc(b1-2)Man(a1-3)[Neu5Ac(a2-3)Gal(b1-4)GlcNAc(b1-3)Gal(b1-4)GlcNAc(b1-2)Man(a1-6)]Man(b1-4)GlcNAc(b1-4)GlcNAc
# Procedure, shortened: as §1
# [16] = target: Neu5Ac(a2-3)Gal(b1-4)GlcNAc(b1-3)Gal(b1-4)GlcNAc(b1-3)Gal(b1-4)GlcNAc
# Procedure, shortened: as §1
# [17] = target: Neu5Ac(a2-3)Gal(b1-4)GlcNAc(b1-3)Gal(b1-4)GlcNAc(b1-3)Gal(b1-4)GlcNAc(b1-2)Man(a1-3)[Neu5Ac(a2-3)Gal(b1-4)GlcNAc(b1-3)Gal(b1-4)GlcNAc(b1-3)Gal(b1-4)GlcNAc(b1-2)Man(a1-6)]GalNAc
# Procedure, shortened: as §1
# [18] = target: Neu5Ac(a2-3)Gal(b1-4)GlcNAc(b1-3)Gal(b1-4)GlcNAc(b1-3)GalNAc
# Procedure, shortened: as §1
# [19] = target: Neu5Ac(a2-3)Gal(b1-4)GlcNAc(b1-3)Gal(b1-4)GlcNAc(b1-3)[Neu5Ac(a2-3)Gal(b1-4)GlcNAc(b1-3)Gal(b1-4)GlcNAc(b1-6)]GalNAc
# Procedure, shortened: as §1
# [20] = target: Neu5Ac(a2-3)Gal(b1-4)GlcNAc(b1-3)Gal(b1-4)GlcNAc(b1-6)[Gal(b1-3)]GalNAc
# Procedure, shortened: as §1
# [21] = target: Neu5Ac(a2-3)Gal(b1-4)GlcNAc(b1-3)Gal(b1-4)[Fuc(a1-3)]GlcNAc
# Procedure, shortened: as §1
# [22] = target: Neu5Ac(a2-3)Gal(b1-4)GlcNAc(b1-3)GalNAc
# Procedure, shortened: as §1
# [23] = target: Neu5Ac(a2-3)Gal(b1-4)GlcNAc(b1-3)[Neu5Ac(a2-3)Gal(b1-4)GlcNAc(b1-6)]GalNAc
# Procedure, shortened: as §1
# [24] = target: Neu5Ac(a2-3)Gal(b1-4)GlcNAc(b1-6)GalNAc
# Procedure, shortened: as §1
# [25] = target: Neu5Ac(a2-3)Gal(b1-4)GlcNAc(b1-6)[Gal(b1-3)]GalNAc
# Procedure, shortened: as §1
# [26] = target: Neu5Ac(a2-3)Gal(b1-4)GlcNAc(b1-6)[Neu5Ac(a2-3)Gal(b1-3)]GalNAc
# Procedure, shortened: as §1
# [27] = target: Neu5Ac(a2-3)Gal(b1-4)GlcNAc6S
# Procedure, shortened: as §1
# [28] = target: Neu5Ac(a2-3)Gal(b1-4)[Fuc(a1-3)]GlcNAc
# Procedure, shortened: as §1
# [29] = target: Neu5Ac(a2-3)Gal(b1-4)[Fuc(a1-3)]GlcNAc(b1-2)Man
# Procedure, shortened: as §1
# [30] = target: Neu5Ac(a2-3)Gal(b1-4)[Fuc(a1-3)]GlcNAc(b1-3)Gal
# Procedure, shortened: as §1
# [31] = target: Neu5Ac(a2-3)Gal(b1-4)[Fuc(a1-3)]GlcNAc(b1-3)Gal(b1-4)GlcNAc
# Procedure, shortened: as §1
# [32] = target: Neu5Ac(a2-3)Gal(b1-4)[Fuc(a1-3)]GlcNAc(b1-3)Gal(b1-4)[Fuc(a1-3)]GlcNAc(b1-3)Gal(b1-4)[Fuc(a1-3)]GlcNAc
# Procedure, shortened: as §1
# [33] = target: Neu5Ac(a2-3)Gal(b1-4)[Fuc(a1-3)]GlcNAc(b1-3)GalNAc
# Procedure, shortened: as §1
# [34] = target: Neu5Ac(a2-3)Gal(b1-4)[Fuc(a1-3)]GlcNAc(b1-6)[Gal(b1-3)]GalNAc
# Procedure, shortened: as §1
# [35] = target: Neu5Ac(a2-3)Gal(b1-4)[Fuc(a1-3)]GlcNAc(b1-6)[Neu5Ac(a2-3)Gal(b1-3)]GalNAc
# Procedure, shortened: as §1
# [36] = target: Neu5Ac(a2-3)Gal(b1-4)[Fuc(a1-3)]GlcNAc6S
# Procedure, shortened: as §1
# [37] = target: Neu5Ac(a2-3)Gal6S(b1-4)GlcNAc
# Procedure, shortened: as §1
binder,measurement,setting,value
AAL (Aleuria aurantia) (protein) MPTEFLYTSKIAAISWAATGGRQQRVYFQDLNGKIREAQRGGDNPWTGGSSQNVIGEAKLFSPLAAVTWKSAQGIQIRVYCVNKDNILSEFVYDGSKWITGQLGSVGVKVGSNSKLAALQWGGSESAPPNIRVYYQKSNGSGSSIHEYVWSGKWTAGASFGSTVPGTGIGATAIGPGRLRIYYQATDNKIREHCWDSNSWYVGGFSASASAGVSIAAISWGSTPQIRVYWQKGREELYEAAYGGSWNTPGQIKDASRPTPSLPDTFIAANSSGNIDISVFFQASGVSLQQWQWISGKGWSIGAVVPTGTPAGW,glycan array binding signal (z-score),[1],-0.311
same,glycan array binding signal (z-score),[2],-0.317
same,glycan array binding signal (z-score),Neu5Ac(a2-3)Gal(b1-4)Glc,-0.317
same,glycan array binding signal (z-score),[3],-0.331
same,glycan array binding signal (z-score),[4],-0.26
same,glycan array binding signal (z-score),[5],-0.305
same,glycan array binding signal (z-score),[6],-0.321
same,glycan array binding signal (z-score),[7],1.36
same,glycan array binding signal (z-score),[8],-0.279
same,glycan array binding signal (z-score),[9],-0.327
same,glycan array binding signal (z-score),[10],-0.317
same,glycan array binding signal (z-score),[11],-0.302
same,glycan array binding signal (z-score),[12],-0.208
same,glycan array binding signal (z-score),[13],-0.317
same,glycan array binding signal (z-score),[14],-0.324
same,glycan array binding signal (z-score),[15],-0.186
same,glycan array binding signal (z-score),[16],-0.323
same,glycan array binding signal (z-score),[17],-0.105
same,glycan array binding signal (z-score),[18],-0.318
same,glycan array binding signal (z-score),[19],-0.219
same,glycan array binding signal (z-score),[20],-0.299
same,glycan array binding signal (z-score),[21],-0.32
same,glycan array binding signal (z-score),[22],-0.302
same,glycan array binding signal (z-score),[23],-0.321
same,glycan array binding signal (z-score),[24],-0.319
same,glycan array binding signal (z-score),[25],-0.256
same,glycan array binding signal (z-score),[26],-0.324
same,glycan array binding signal (z-score),[27],-0.327
same,glycan array binding signal (z-score),[28],0.758
same,glycan array binding signal (z-score),[29],0.186
same,glycan array binding signal (z-score),[30],1.54
same,glycan array binding signal (z-score),[31],1.39
same,glycan array binding signal (z-score),[32],1.85
same,glycan array binding signal (z-score),[33],-0.22
same,glycan array binding signal (z-score),[34],-0.28
same,glycan array binding signal (z-score),[35],-0.278
same,glycan array binding signal (z-score),[36],0.284
same,glycan array binding signal (z-score),[37],0.529
